# In PubChem BioAssay AID686978 (National Center for Advancing Translational Sciences (NCATS), 2013):
# Several values for one entry are separate records, joined by “and”; a condition that tells them apart may be missing. Equal values may be shown once. About 64,000 (15%) of roughly 420,000 compounds were called active. Inconclusive means that the source gave no clear call. Such entries were picked first, then a sample of the others. Calls come from the whole dose curve; as a rule, active = well fitted inhibition curve with a large enough effect; inconclusive = small, poorly fitted or top-dose-only effect; inactive = flat fitted curve, though single readings scatter. Potencies of inconclusive entries are left out as doubtful fits.
# Assay: qHTS for Inhibitors of human tyrosyl-DNA phosphodiesterase 1 (TDP1): qHTS in cells in absence of CPT; note: nearly all actives have a fitted effect of over 55% in size
# Conditions: DT40 Tdp1-/- hTDP1 cells, no CPT, ATP luminescence, 48 h; activity change, negative = growth inhibition: at 46.2 µM (top of the series) unless noted
# How it was run: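 No-CPT arm: Tdp1-/-;hTDP1 DT40 cells (400/well) plus compounds, incubated ≥48 hr at 37 °C. Readout CellTiter-Glo luminescence.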
# % is set by controls: 0 for no effect and ±100 for the full control effect; potency is the fitted concentration of half-maximal effect; tags give direction and shape of the fitted curve.
SMILES,Potency,"activity change, negative = growth inhibition"
COc1cccc(C(=O)Nc2nnc(-c3ccccc3)s2)c1OC,"inconclusive [inhibitor, single point]",
O=C(NCc1ccc(Cl)cc1)C1(c2cccs2)CCOCC1,"inconclusive [inhibitor, single point]",
CCN(Cc1ccccc1)C(=O)CCc1nc(CN2CCN(C(=O)c3ccc([N+](=O)[O-])cc3)CC2)no1,"inconclusive [inhibitor, single point]",
O=C(CCCCn1c(=O)c2ccccc2n(Cc2ccccc2F)c1=O)NCc1ccc2c(c1)OCO2,"inconclusive [inhibitor, partial curve, poor fit]",
Cc1ccccc1CS(=O)(=O)Cc1ccc(C(=O)NCc2cccnc2)o1,,inactive: -11.8%
Cc1noc(C)c1CSCC(=O)Nc1nc2ccccc2s1,"inconclusive [inhibitor, single point]",
COC(=O)c1ccccc1NC(=O)Cn1ncc2c(C)n(Cc3ccc(F)cc3)c(C)c2c1=O,"inconclusive [inhibitor, single point]",
Cc1onc(-c2ccccc2)c1C(=O)NCC(=O)Nc1cc(Cl)ccc1Cl,"inconclusive [inhibitor, single point]",
COc1cc2cnc(-c3ccccc3)c(-c3ccc(C(F)(F)F)cc3)c2cc1OC,"inconclusive [inhibitor, single point]",
COc1ccc(NC(=O)CCCN2C(=O)CN(C)C2=O)c(OC)c1,"inconclusive [inhibitor, single point]",
O=C(/C=C/c1ccc(OC(F)F)cc1)OCC(=O)N1CCN(C(=O)c2ccco2)CC1,"inconclusive [inhibitor, single point]",
COc1ccc(-c2coc3c(C(=O)NCc4cccs4)cccc23)c(C)c1,active: 18.4 µM,
CCC(=O)N1CCc2cc(Br)cc(S(=O)(=O)N3CCCCC3CC)c21 (stereo unspecified),active: 20.6 µM,
CC(=O)c1cccc(Nc2cc(C)nc3nc(-c4ccccc4C)nn23)c1,"inconclusive [inhibitor, single point]",
COC(=O)c1ccccc1NC(=O)CCn1nc(C)c2c(C)n(-c3ccccc3)nc2c1=O,,inactive: -22.8%
Cc1ccc(OCCSc2nc3ccccc3n2CC(=O)N2CCCCC2)cc1C,"inconclusive [inhibitor, single point]",
CCN1CCN(CC(=O)Nc2cc(S(=O)(=O)N(CC)c3ccccc3)ccc2Cl)CC1,"inconclusive [inhibitor, single point]",
C/C(=C\C(=O)c1ccc(F)cc1)NCc1ccc2c(c1)OCO2,,inconclusive: -31.2% [inhibitor]
O=C(CCc1ccccc1)NCC1(c2ccccc2)CCCC1,"inconclusive [inhibitor, single point]",
O=C(COc1ccccc1)NCC(c1ccco1)N1CCN(c2ccccc2)CC1 (stereo unspecified),,inactive: -10.3%
Cc1c(Cl)cccc1NC(=O)CCC(=O)N/N=C/c1ccc[nH]1,,inactive: 0.833%
COC(=O)c1c(NC(=O)c2c(Cl)cnn2C)sc(C)c1C,,inactive: -17.9%
C=CCn1c(SCn2nnc3ccccc3c2=O)nnc1-c1ccc(Br)cc1,"inconclusive [inhibitor, single point]",
CCOC(=O)C1CC(c2ccccc2)=NNC1=O (stereo unspecified),,inactive: 4.68%

SMILES,Potency,"activity change, negative = growth inhibition"
O=c1c(O)c(-c2ccc3c(c2)OCO3)oc2ccccc12,"inconclusive [inhibitor, single point]",
CCCCn1c(=N)n(CC(=O)C(C)(C)C)c2ccccc21,"inconclusive [inhibitor, single point]",
COc1ccc(C(=O)COC(=O)c2ccc(Cl)nc2)cc1OC,,inactive: -3.74%
COc1cc(C(=O)OCC(=O)Nc2cc(S(=O)(=O)N3CCOCC3)ccc2C)ccc1OCC(C)C,"inconclusive [inhibitor, single point]",
COc1cc(C2C3=C(COC3=O)Oc3cc4c(cc32)OCO4)cc(OC)c1OC (stereo unspecified),active: 141 nM and active: 146 nM,
CCN(c1ccccc1)S(=O)(=O)c1ccc(Oc2ccc([N+](=O)[O-])cc2)nc1,"inconclusive [inhibitor, single point]",
COc1ccc(C)cc1NC(=O)C1CCN(S(=O)(=O)c2cccc3cccnc23)CC1,"inconclusive [inhibitor, single point]",
O=C(COc1ccccc1)NCCc1csc(-c2ccc(F)cc2)n1,"inconclusive [inhibitor, single point]",
N#Cc1ccc[n+](CC(=O)c2ccc(F)cc2)c1,"inconclusive [inhibitor, single point]",
CC1CCCCC1NC(=O)COC(=O)c1ccc2c(c1)NC(=O)CS2 (stereo unspecified),,inactive: -7.47%
O=C(COC(=O)c1cccc(S(=O)(=O)N2CCc3ccccc32)c1)NCc1ccco1,,inconclusive: -30.3% [inhibitor]
Cc1cnc(CNc2ncnc3ccc(-c4ccccc4C)cc23)cn1,"inconclusive [inhibitor, single point]",
CN1CCN(c2ncc3nc(-c4cn(C)c5ccccc45)c(=O)n(C[C@H]4CCCO4)c3n2)CC1,"inconclusive [inhibitor, single point]",
C#Cc1ccc([C@H]2C=C(C(=O)N3CCN(Cc4ccc5c(c4)OCO5)CC3)O[C@@H](OCC)[C@@H]2CCCO)cc1,"inconclusive [inhibitor, single point]",
O=C(Nc1nc(-c2ccccn2)cs1)c1ccc(F)c(S(=O)(=O)N2CCOCC2)c1,active: 0.58 µM,
CCOc1ccc(C(C)=O)cc1COC(=O)CNC(=O)c1cccs1,,inactive: -6.35%
Cc1cc(=O)[nH]c(N/N=C/c2c(O)n(-c3ccccc3)c(=O)c3ccccc23)n1,"inconclusive [inhibitor, single point]",
COC(=O)[C@@]12C[C@@H](CC(=O)N3CCCC3)C(=O)N(Cc3ccccc3)C1=CCC(C)(C)C2,"inconclusive [inhibitor, single point]",
COc1ccc(C(CNC(=O)c2ccc(S(=O)(=O)N(C)C)cc2)N2CCCCC2)cc1 (stereo unspecified),,inactive: -9.44%
Cc1ccc(N2C(=O)CC(Sc3ncn[nH]3)C2=O)cc1C (stereo unspecified),active: 5.17 µM,
Cc1ccc2cc(CN(CC3CCCO3)C(=O)c3cccs3)c(=O)[nH]c2c1 (stereo unspecified),"inconclusive [inhibitor, single point]",
O=C(Cn1cc(S(=O)(=O)Cc2cccc(Cl)c2)c2ccccc21)Nc1ccc(F)c(Cl)c1,"inconclusive [inhibitor, single point]",
CCCn1nc(C(=O)Nc2cc(C(=O)OC)ccc2C)c2ccccc2c1=O,,inactive: -6.73%
CCOc1ccccc1/C=C(\C#N)C(=O)NC1CC1,,inactive: -17.5%

SMILES,Potency,"activity change, negative = growth inhibition"
COc1ccc(CNC(=O)CCc2nc3cccnc3n2Cc2ccc(OC)cc2)cc1,,inactive: -18%
CCOc1ccc(NC(=O)CN2CCN(CC(=O)c3ccc(OC)c(OC)c3)CC2)cc1,"inconclusive [inhibitor, partial curve]",
CCCCCCCn1c(=N)n(CC(=O)c2ccco2)c2ccccc21,"inconclusive [inhibitor, single point]",
O=C(CCCC(=O)N1CCN(c2cccc(Cl)c2)CC1)c1ccccc1,active: 18.4 µM,
Cc1c(OC(C)C(=O)NCC2CCC(C(=O)O)CC2)ccc2c3c(c(=O)oc12)CCCC3 (stereo unspecified),,inactive: -0.414%
COc1ccccc1CN(C(=O)Cc1cccs1)C(C(=O)NC1CCCC1)c1ccncc1 (stereo unspecified),"inconclusive [inhibitor, partial curve]",
Cc1cc(C)c2oc(=O)cc(CN3CCN(Cc4ccccc4)CC3)c2c1,"inconclusive [inhibitor, partial curve]",
Cc1ccccc1Cc1c(C)nc2c(-c3ccccc3)c(C)[nH]n2c1=O,active: 20.6 µM,
S=C1SCCCN1Cc1ccc(Cl)cc1,"inconclusive [inhibitor, single point]",
OC(c1ccc(F)c(F)c1)c1ncc(-c2cccc(F)c2)[nH]1 (stereo unspecified),,inactive: -18.7%
CCN(CC)CCNc1nc(-n2nc(C)cc2C)nc2sc3c(c12)CC(C)(C)OC3,active: 10.3 µM,
COc1ccc(CCC(=O)Nc2ncc(C)s2)cc1OC,,inactive: 4.6%
COc1cccc(C(=O)NCCS(=O)(=O)NCCc2ccccc2)c1,,inconclusive: -32.6% [inhibitor]
O=C(Nc1ccc(Cl)cc1)N[C@@H]1CC[C@H](CCNS(=O)(=O)c2ccccc2F)O[C@@H]1CO,"inconclusive [inhibitor, single point]",
c1ccc(-c2noc(-c3ccncc3)n2)nc1,"inconclusive [inhibitor, partial curve]",
CCCCC1C2C(=O)N(c3ccc(C)cc3)C(=O)C2ON1c1ccccc1 (stereo unspecified),,inactive: -2.05%
Cc1ccc(NC(=O)Cn2c(=O)n(CCc3ccccc3)c(=O)c3sc4ccccc4c32)cc1C,,inactive: -6.88%
CCOc1ccc(C2NC(=S)NC3=C2CCc2ccccc23)cc1 (stereo unspecified),"inconclusive [inhibitor, single point]",
CSc1ccc(CNC(=O)C2(C)CCCN(C(C)=O)C2)cc1 (stereo unspecified),,inactive: 0.22%
COc1ccc(NC(=S)NCC2CCCO2)c(OC)c1 (stereo unspecified),,inactive: -6.06%
CCc1ccc(C(=O)COC(=O)c2cccnc2Cl)cc1,"inconclusive [inhibitor, single point]",
CC(Oc1cc(Cl)ccc1Cl)C(=O)N/N=C\c1ccnn1C (stereo unspecified),"inconclusive [inhibitor, partial curve]",
C#CCCOC(=O)Nc1ccccc1,,inactive: 5.68%
